Data from PubChem BioAssay AID1645887 (National Center for Advancing Translational Sciences (NCATS), 2021).
Where “and” joins values, the source holds several entries; their conditions need not be identical. Identical values can stand only once. The campaign covered roughly 16,000 compounds. About 40 (0.2%) were called active. Not shown: some 1% with an inconclusive outcome. Calls follow the shape of the dose curve; as a rule, active = well fitted activation curve with a large enough effect; inconclusive = small, poorly fitted or top-dose-only effect, or another doubt; inactive = no such curve, though single readings can be large or run the other way. Some of the results follow.

Molecular target: Rap guanine nucleotide exchange factor 4 (Homo sapiens) (UniProt Q8WZA2)
Test: Validation qHTS for agonist of cAMP-regulated guanine nucleotide exchange factor 4 (EPAC2);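 also: exchange makes BODIPY-GDP fluorescence drop when released from Rap1B; series mostly up to about 150 µM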
Conditions: EPAC2 Rap1B BODIPY-GDP exchange, fluorescence; activation: active compounds read high
Outline: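 Fluorescent exchange assay: 100 nM EPAC2 with 250 nM RAP1B-BODIPY-GDP and 50 uM GDP; compound added, 5 min at room temperature, then read (ex 480/em 540 nm) every 5 min for 30 min. Normalized to 6.5 mM cAMP agonist control.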
% is scaled to controls: 0 for no effect and ±100 for the full control effect.

Chain of UniProt Q8WZA2 (Q8WZA2 whole entry, looked up): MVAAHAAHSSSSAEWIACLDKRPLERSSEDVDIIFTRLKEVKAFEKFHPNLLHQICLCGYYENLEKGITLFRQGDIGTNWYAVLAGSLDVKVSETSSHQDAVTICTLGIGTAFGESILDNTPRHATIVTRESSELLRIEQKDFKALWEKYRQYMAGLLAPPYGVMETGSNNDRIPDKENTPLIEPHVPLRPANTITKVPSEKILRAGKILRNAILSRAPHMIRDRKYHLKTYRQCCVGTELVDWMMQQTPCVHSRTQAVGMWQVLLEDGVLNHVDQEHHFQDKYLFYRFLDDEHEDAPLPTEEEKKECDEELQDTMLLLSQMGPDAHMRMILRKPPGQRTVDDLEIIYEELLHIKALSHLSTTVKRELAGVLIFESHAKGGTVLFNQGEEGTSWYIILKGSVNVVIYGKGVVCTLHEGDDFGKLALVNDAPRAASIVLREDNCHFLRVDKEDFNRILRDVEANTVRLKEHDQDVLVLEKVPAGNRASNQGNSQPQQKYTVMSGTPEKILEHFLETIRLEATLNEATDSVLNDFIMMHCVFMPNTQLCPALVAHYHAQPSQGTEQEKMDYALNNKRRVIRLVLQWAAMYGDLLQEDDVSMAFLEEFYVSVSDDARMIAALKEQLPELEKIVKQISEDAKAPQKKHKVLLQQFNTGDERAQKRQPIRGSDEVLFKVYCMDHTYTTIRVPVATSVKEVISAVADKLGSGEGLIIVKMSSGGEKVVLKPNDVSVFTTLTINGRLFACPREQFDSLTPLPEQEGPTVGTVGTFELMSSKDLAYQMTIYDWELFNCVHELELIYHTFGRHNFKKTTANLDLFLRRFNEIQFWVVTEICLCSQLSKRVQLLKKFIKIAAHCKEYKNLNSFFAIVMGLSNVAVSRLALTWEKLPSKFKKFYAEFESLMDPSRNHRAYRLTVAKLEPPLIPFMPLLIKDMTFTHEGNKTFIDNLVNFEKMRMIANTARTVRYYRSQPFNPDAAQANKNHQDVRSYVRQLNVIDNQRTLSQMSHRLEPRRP

activation, inactive:
CCOC(=O)[C@H](CCc1ccccc1)N[C@@H](C)C(=O)N(CC(=O)O)C1Cc2ccccc2C1 -12%
O=C1O[C@@H]2[C@@H](O)[C@H](O)O[C@@H]2[C@H]1O -2.06%
COc1cc(CN2CCOc3ccc(CN4CCC(O)(c5cccnc5)CC4)cc3C2)ccc1F -3.79%
CCN(CC)c1ncnc2c1ncn2[C@@H]1O[C@@H](COP(=O)(O)OP(=O)(O)C(Br)(Br)P(=O)(O)O)[C@H](O)[C@H]1O -8.64%
O=C1CCN(Cc2ccccc2)S(=O)(=O)c2ccc(C(F)(F)F)cc21 -32.7%
COc1ccc(-c2nc3cnc(N4CCOCC4)nc3n(Cc3cccc(OC)c3)c2=O)cc1 9.88%
CN(CCO)C(=O)c1cn(C2CCCN(Cc3ccc4ccccc4c3)C2)nn1 (configuration not stated) -4.59%
C[C@H](Cn1cnc2c(N)ncnc21)OCP(=O)(O)O 2.78%
CNC(=O)c1c(I)c(C(=O)NCC(=O)Nc2c(I)c(C(=O)O)c(I)c(C(=O)NCCO)c2I)c(I)c(N(C)C(C)=O)c1I 4.68%
O=S1(=O)CCOC[C@H](c2ccccc2)N1Cc1ccc(Cl)c(Cl)c1 -10.4%
CC(CN1CC(=O)NC(=O)C1)N1CC(=O)NC(=O)C1 (configuration not stated) -2.55%
CN1CCN(c2ncc3ncc(=O)n(CCc4ccccc4)c3n2)CC1 2.15%
Cc1ncoc1C(=O)NCc1nc(-c2cccc(NC(=O)c3ccccn3)c2)oc1C -8.16%
O=C(C[C@H]1C(=O)N(CCc2ccccc2)C[C@@H]1Cc1ccccc1)Nc1ccccc1 -38%
COc1c(C(C)C)oc2cc3oc(=O)ccc3cc12 -24.8%
Cc1noc(C)c1-c1nccc(-n2ccnc2)n1 -22.3%
c1ccc2c(c1)sc[n+]2CCC1CCCCC1 -22.5%
COc1cc(C(=O)OC2CC[C@]3(C)C4CCC5[C@]6(O)CC(O)[C@]7(O)C(CN8CC(C)CCC8[C@]7(C)O)[C@]6(O)C[C@@]53O[C@]24O)cc(OC)c1OC (some centres not stated) -9.6%
Cc1cc(O)c(C(C)C)cc1Cl -11%
COc1cc(N(C)C)c(OC)cc1C=O -9.96%
CC(=O)Oc1ccccc1C(=O)Oc1ccccc1C(=O)O -0.334%
C[C@H](O)CN(C)C -9.35%
O=C(c1cccc(F)c1)N1CCC2(CC1)CN(C(c1ccccc1)c1ccccc1)C2 -0.221%
N[C@H](C(=O)O)[C@@H]1CC(Cl)=NO1 26.5%
Cc1cnc(CNc2nc(-c3ccccc3Cl)nc3ccccc23)cn1 -36%
O=C(O)c1ccncc1 -7.57%
COc1ccccc1CCC(=O)N1CCOc2c(cc(-c3cnc4ccccc4c3)cc2OC)C1 -2.28%
O=[N+]([O-])O[C@@H]1CO[C@H]2[C@@H]1OC[C@@H]2O 3.66%
O=C(NCCCN1CCCCCC1)C(c1ccccc1)C1CCCCC1 (configuration not stated) 9.09%
CC1CC2C(C(O)C[C@]3(C)C2CC[C@]3(O)C(=O)CO)[C@]2(C)C=CC(=O)C=C12 (some centres not stated) 3.25%
CCCCC/C=C\C/C=C\CCCCCCCCCC(=O)O 7.37%
O=C1C=CC2=C3c4cc(O)c(O)cc4C[C@@]3(O)COC2=C1 -5.9%
NC(Cc1ccccc1)C(=O)O (configuration not stated) -10.8%
CNC(=O)Oc1ccc2c(c1)[C@@]1(C)CCN(C)C1N2C (some centres not stated) -0.673% and -1.46% and 2.98%
COc1ccc2[nH]c(-c3ccccc3)c(CCNC(C)=O)c2c1 -31% and 10%
COc1ccccc1C1CN(CCNC(=O)c2cnsn2)Cc2ccccc2O1 (configuration not stated) 9.77%
CCOC(=O)C1=CC2(CC)CCCN3CCc4c(n1c1ccccc41)C32 (configuration not stated) -20.1%
Cc1cc(-c2ccnc(-n3ncc(C(=O)N(C)Cc4nccs4)c3C)n2)c(C)s1 -8.42%
CC(C)(C)c1ccc(C(=O)CCCN2CCC(OC(c3ccccc3)c3ccccc3)CC2)cc1 -27.8% and -37.5%
COCC(=O)N1CCC2(CCCN(C(=O)Nc3cccc(F)c3)C2)CC1 -5.5%
CCCCCC(O)c1cccc(OCc2ccc3ccccc3n2)c1 (configuration not stated) 2.21% and -54.7%
C/C1=C/CC(C)(C)/C=C/C/C(C)=C/CC1 -19.6%
COc1cc(-c2coc3cc(O[C@H]4OC(CO)C(O)C(O)C4O)c(OC)c(O)c3c2=O)cc(O)c1OC (some centres not stated) -1.56%
CC1(C)S[C@@H]2[C@H](N3C(=O)C(c4ccccc4)NC3(C)C)C(=O)N2[C@H]1C(=O)O (some centres not stated) -16.6%
O=c1ccn([C@@H]2O[C@H](CO)[C@@H](O)[C@H]2O)c(=O)[nH]1 -8.02%
O=c1c(-c2ccccc2)nc2cnc(N3CCOCC3)nc2n1-c1ccccc1 -5.23%
COc1ccccc1CN1CCCC2(CCN(S(=O)(=O)c3ccccc3)CC2)C1 -25.4%
COc1cc2oc(-c3ccccc3)cc(=O)c2cc1OC -14.1%
CO/N=C(/C(=O)N[C@@H]1C(=O)N2C(C(=O)[O-])=C(C[n+]3ccn4ncccc43)CS[C@H]12)c1nsc(N)n1 -10.9% and -25.6%
CN(C)[C@@H]1C(=O)C(C(=O)NCN2CCCC2)=C(O)[C@@]2(O)C(=O)C3=C(O)c4c(O)cccc4[C@@](C)(O)C3C[C@@H]12 (some centres not stated) -15.9% and -25.9%
COc1ccc(NC(=O)N2CCCC3(CCN(S(C)(=O)=O)CC3)C2)cc1 -5.14%
CN(C)C(=O)c1ccc(-c2cncnc2N(C)Cc2ccco2)cc1 3.93%
CCCCC/C=C\C/C=C\CCCCCCCC(=O)NCC(=O)O -6.85%
CS(=O)(=O)Nc1cccc(-c2nc(N3CCNCC3)c3ccccc3n2)c1 2.43%
C=CCSc1nnc(C2CCCN(Cc3ccccc3O)C2)n1C (configuration not stated) 0.346%
COc1cccc(C2(CC(=O)N3CCCCC3CO)CC(=O)N(C)C2=O)c1 (configuration not stated) -12.4%
COc1ccccc1-c1ccc(C(=O)N(C)CC2COCCO2)c(N2CCN(c3ccccc3F)CC2)n1 (configuration not stated) 4.59%
CC(=O)N1CCC2(CC1)CN(c1ccccc1)C2 -4.55%
COc1ccccc1-c1cncnc1NCCNC(C)=O -4.49%
O=C(Oc1ccccc1)N1CCC2(CCCN(c3ccccc3)C2)CC1 8.8%
CN(Cc1ccco1)c1ccnc(-c2cccc(C#N)c2)n1 1.43%
NCCN -4.09%
CCN(CC)CCOC(=O)c1ccc(N)cc1 -2.73% and -9.89% and -3.31%
COc1ccc(/C=c2\[nH]c(=O)/c(=C/c3ccc(OC)cc3)[nH]c2=O)cc1 -19.2%
COc1ccccc1-c1ccc2ncnc(N3CCNCC3)c2c1 -6.93%
Cc1noc(C)c1-c1ccc2ncnc(NCCN3CCOCC3)c2c1 -9.97%
Cn1ccnc1 -39.6%
Cc1cccc(C)c1NC(=O)CN(CC(=O)O)CC(=O)O -5.17%
CN1CCN(c2ncc3nc(-c4cn(C)c5ccccc45)c(=O)n(C[C@H]4CCCO4)c3n2)CC1 -6.33%
Cc1cnc(CNc2ncnc3ccc(-c4ccccc4C)cc23)cn1 -6.63%
CC1(c2ccccc2)OC(C(=O)O)=CC1=O (configuration not stated) -20.8%
CC(NC(=O)c1cc(F)ccc1F)c1nnc2n1CCN(Cc1ccc(-c3ccccc3)cc1)CC2 (configuration not stated) -20.6%
N#Cc1ccc[n+](CC(=O)c2ccc(F)cc2)c1 -11.3%
CCOC(=O)c1c(C)cc(O)c(C=O)c1O -18.1%
O=C(O)C[C@@H]1NC(=O)[C@H](Cc2ccccc2)NC1=O 1.13%
O=C(c1ccco1)N1CCC2(CCCN(c3cccc(-c4ccccc4)c3)C2)CC1 15.1%
CCCCCCCCCCCCCCCC(=O)OCC(COP(=O)(O)O)OC(=O)CCCCCCCCCCCCCCC (configuration not stated) -1.07%
OC(c1ccc2c(c1)CN(Cc1c[nH]c3ccccc13)CCO2)c1ccccn1 (configuration not stated) -2.92%
CN(C)C(=O)c1ccc(-c2nc(Nc3ccccc3)c3ccccc3n2)cc1 -27.2%
CC(C)[C@@H]1C(=O)N(S(C)(=O)=O)[C@H]2CCN(C(=O)/C=C\CN3CCCCC3)[C@@H]12 -20.2%
COc1ccc(F)c(CN2CCOc3ccc(CN4CCCCC4CO)cc3C2)c1 (configuration not stated) 2.4%
CC(=O)N1CCC2(CCN(Cc3nccs3)CC2)CC1 -7.85%
COc1cccc(Cn2c(=O)c(C)nc3cnc(Oc4ccccc4)nc32)c1 9.31%
CC[C@H](C)C(=O)O[C@H]1C[C@@H](C)C=C2C=C[C@H](C)[C@H](CC[C@@H]3C[C@@H](O)CC(=O)O3)[C@H]21 -51.1% and -9.54%
CC(C)CN1CCCC2(CCN(S(=O)(=O)c3ccccc3)CC2)C1 -6.72%
COc1ccccc1C(=O)N(Cc1cc2cc3c(cc2nc1N(C)C)OCO3)CC1CCCO1 (configuration not stated) -2.77%
CCOC(=O)C[C@H]1c2cc(F)ccc2S(=O)(=O)N1c1ccccc1 -15.4%
